# From PubChem BioAssay (Tox21)
# Where “and” joins values, the source holds several entries; their conditions need not be identical. Equal values may be shown once. Inconclusive results, whose numbers are uncertain, are shown with a selection of clear calls. For part of these data: A potency beside an inconclusive call is a rough fit, not a confirmed value. The source holds several records for some structures; these can differ, active in one and inactive in another. Calls of active or inactive are those of the source. Unless noted, the call rests on the fitted dose curve.
# Legend:
# [1] = biological target: Peroxisome proliferator-activated receptor gamma (Homo sapiens) (UniProt P37231); experiment: qHTS assay to identify small molecule antagonists of the peroxisome proliferator-activated receptor gamma (PPARg) signaling pathway (AID 743191); conditions: HEK293H PPARg-UAS-bla, beta-lactamase ratio, antagonist, 17 h; further: nearly all actives have a fitted effect of over 30% in size; further: potency means the concentration at half of the fitted maximal effect
# UniProt P37231, sequence (P37231 whole entry, looked up): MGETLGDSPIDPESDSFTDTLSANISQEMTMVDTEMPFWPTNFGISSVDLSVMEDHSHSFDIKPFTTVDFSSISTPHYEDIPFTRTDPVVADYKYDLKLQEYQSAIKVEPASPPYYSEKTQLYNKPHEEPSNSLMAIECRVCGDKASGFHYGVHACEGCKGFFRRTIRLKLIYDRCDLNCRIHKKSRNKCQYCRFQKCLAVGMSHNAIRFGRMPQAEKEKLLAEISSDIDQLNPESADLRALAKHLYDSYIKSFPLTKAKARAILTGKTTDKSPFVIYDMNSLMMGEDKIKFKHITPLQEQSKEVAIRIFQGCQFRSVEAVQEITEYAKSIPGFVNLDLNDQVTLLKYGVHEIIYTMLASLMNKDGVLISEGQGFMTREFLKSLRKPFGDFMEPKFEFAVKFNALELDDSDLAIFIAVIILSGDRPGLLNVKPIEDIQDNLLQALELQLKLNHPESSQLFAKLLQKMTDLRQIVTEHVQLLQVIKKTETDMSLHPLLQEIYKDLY
# Outline: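 Beta-lactamase reporter under UAS control in HEK293H PPARg-bla cells; compound treatment 17 h at 37C. Read-out: fluorescence intensity after 1 h room-temperature incubation with LiveBLAzer B/G FRET substrate.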
# [2] = qHTS assay for small molecule activators of the heat shock response signaling pathway (AID 743210; active means well fitted activation curve with a large enough effect in the signal ratio in the repeat runs, with a control signal flat, not every such curve was filed as active; inconclusive means weak or mixed curves; the % refers to the signal ratio; further: potency means the concentration at half of the fitted maximal effect); conditions: HeLa HSE-bla reporter, beta-lactamase ratio, 5 h; activation: at 62.6 µM (top of the series) unless noted
# Outline: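 In HSE-bla HeLa cells, 5 h compound incubation (37 C) precedes addition of LiveBLAzer B/G substrate; after 2.5 h at room temperature, fluorescence intensity indicates reporter induction.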
# [3] = qHTS assay to identify small molecule agonists of the peroxisome proliferator-activated receptor delta (PPARd) signaling pathway - cell viability counter screen (AID 743211; active means well fitted curve in the direction sought with a large enough effect in the repeat runs; inconclusive means weak or mixed curves; inactive means no such curve, though single readings can be large; an effect the other way counts as inactive or inconclusive; further: potency means the concentration at half of the fitted maximal effect; nearly all actives have a fitted effect of over 55% in size); conditions: PPARd-bla HEK293H viability, CellTiter-Glo luminescence, 17 h; activity change, negative = cytotoxicity: at 62.6 µM (top of the series) unless noted
# Outline: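 Viability was measured as CellTiter-Glo luminescence (30 min, room temperature) in the same wells as the beta-lactamase readout. GeneBLAzer PPARd UAS-bla HEK293H cells received compound after 5 h plating and were incubated 17 h at 37 C.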
# [4] = qHTS assay to identify small molecule antagonists of the peroxisome proliferator-activated receptor delta (PPARd) signaling pathway - cell viability counter screen (AID 743213; active means well fitted curve in the direction sought with a large enough effect in the repeat runs; inconclusive means weak or mixed curves; inactive means no such curve, though single readings can be large; an effect the other way counts as inactive or inconclusive; further: potency means the concentration at half of the fitted maximal effect; nearly all actives have a fitted effect of over 50% in size); conditions: PPARd-bla HEK293H viability, CellTiter-Glo luminescence, 17 h; viability change, negative = cytotoxic: at 62 µM (top of the series) unless noted
# Outline: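 PPARd-bla HEK293H cells were treated with compounds plus agonist L165041 (300 nM final) for 17 h at 37 C. Viability was then read in the same wells by CellTiter-Glo luminescence after 30 min at room temperature.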
# [5] = biological target: Peroxisome proliferator-activated receptor delta (Homo sapiens) (UniProt Q03181); experiment: qHTS assay to identify small molecule antagonists of the peroxisome proliferator-activated receptor delta (PPARd) signaling pathway (AID 743215; active means well fitted inhibition curve with a large enough effect in the signal ratio in the repeat runs, not every such curve was filed as active; inconclusive means weak or mixed curves, or effect the other way; inactive means no such curve, though single readings can be large or run the other way; the % refers to the signal ratio;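 further: cells stimulated with agonist L165041 at 300 nM final during compound exposure; on the % scale 0 is the no-effect control and ±100 the full control effect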); conditions: HEK293H PPARd-UAS-bla, beta-lactamase FRET ratio, antagonist, 17 h; ratio activity, negative = inhibition: at 62 µM (top of the series) unless noted
# UniProt Q03181, sequence (Q03181 whole entry, looked up): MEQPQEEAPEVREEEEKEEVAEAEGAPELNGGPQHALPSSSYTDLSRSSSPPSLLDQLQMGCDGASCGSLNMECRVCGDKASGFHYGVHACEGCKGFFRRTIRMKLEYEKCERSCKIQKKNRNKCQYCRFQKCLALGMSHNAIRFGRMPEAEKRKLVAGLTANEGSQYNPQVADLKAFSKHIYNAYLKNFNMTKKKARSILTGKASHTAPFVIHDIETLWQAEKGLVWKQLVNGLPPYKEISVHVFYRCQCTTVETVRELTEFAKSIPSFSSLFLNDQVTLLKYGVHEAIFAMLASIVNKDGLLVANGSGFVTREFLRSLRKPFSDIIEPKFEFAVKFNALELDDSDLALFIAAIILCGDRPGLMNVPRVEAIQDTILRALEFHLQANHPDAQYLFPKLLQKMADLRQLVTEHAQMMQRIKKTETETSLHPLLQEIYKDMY
# Outline: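 Inhibition of L165041-driven (300 nM final) PPARd signaling is scored in HEK293H UAS-bla cells. Exposure lasts 17 h at 37 C; beta-lactamase activity is then read by FRET substrate fluorescence after 2 h at room temperature.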
# [6] = qHTS assay to identify small molecule agonists of the farnesoid-X-receptor (FXR) signaling pathway - cell viability counter screen (AID 743218; active means well fitted curve in the direction sought with a large enough effect in the repeat runs; inconclusive means weak or mixed curves; inactive means no such curve, though single readings can be large; an effect the other way counts as inactive or inconclusive; further: potency means the concentration at half of the fitted maximal effect; nearly all actives have a fitted effect of over 45% in size); conditions: FXR-bla HEK293T viability, CellTiter-Glo luminescence, 16 h; viability change, negative = cytotoxic: at 62.6 µM (top of the series) unless noted
# Outline: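 Cytotoxicity counter-screen run in parallel, same wells: FXR-UAS-bla HEK 293T cells dosed 16 h at 37 C, viability read by CellTiter-Glo luminescence after 30 min at room temperature.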
# [7] = biological target: Vitamin D3 receptor (Homo sapiens) (UniProt P11473); experiment: qHTS assay to identify small molecule agonists of the vitamin D receptor (VDR) signaling pathway (AID 743222); conditions: HEK293T VDR-UAS-bla, beta-lactamase FRET ratio, 16 h; activation: at 63.5 µM (top of the series) unless noted; further: on the % scale 0 is the no-effect control and ±100 the full control effect
# UniProt P11473, sequence (P11473 whole entry, looked up): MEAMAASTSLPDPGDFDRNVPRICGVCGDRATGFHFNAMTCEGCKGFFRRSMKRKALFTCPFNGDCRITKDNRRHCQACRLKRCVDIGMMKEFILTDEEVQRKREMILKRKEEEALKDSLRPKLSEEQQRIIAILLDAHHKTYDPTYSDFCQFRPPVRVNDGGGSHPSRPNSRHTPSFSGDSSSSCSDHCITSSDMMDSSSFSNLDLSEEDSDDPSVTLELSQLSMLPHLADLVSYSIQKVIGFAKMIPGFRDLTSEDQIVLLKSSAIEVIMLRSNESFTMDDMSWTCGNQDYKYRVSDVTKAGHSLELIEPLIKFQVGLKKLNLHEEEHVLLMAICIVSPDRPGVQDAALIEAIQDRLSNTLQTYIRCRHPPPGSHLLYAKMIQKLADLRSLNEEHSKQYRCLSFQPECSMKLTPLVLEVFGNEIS
# Outline: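 Quantitative HTS agonist-mode screen: compounds in DMSO were pin-transferred onto VDR-bla cells and incubated 16 h at 37C, 5% CO2. Reporter activity was detected with LiveBLAzer B/G FRET substrate after 2 h at room temperature.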
# [8] = qHTS assay to identify small molecule antagonists of the peroxisome proliferator-activated receptor gamma (PPARg) signaling pathway - cell viability counter screen (AID 743194; active means well fitted curve in the direction sought with a large enough effect in the repeat runs; inconclusive means weak or mixed curves; inactive means no such curve, though single readings can be large; an effect the other way counts as inactive or inconclusive; further: potency means the concentration at half of the fitted maximal effect; nearly all actives have a fitted effect of over 55% in size); conditions: PPARg-bla HEK293H viability, CellTiter-Glo luminescence, 17 h, co-treated with 50 nM rosiglitazone; activity change, negative = cytotoxicity: at 62.6 µM (top of the series) unless noted
# Outline: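 Viability was measured as CellTiter-Glo luminescence in GeneBLAzer PPARg UAS-bla HEK293H cells. These cells had been exposed 17 h at 37 C to compounds together with rosiglitazone at 50 nM final, with the beta-lactamase readout taken in the same wells.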
# [9] = qHTS assay for small molecule agonists of the antioxidant response element (ARE) signaling pathway (AID 743202; active means well fitted activation curve with a large enough effect in the signal ratio in the repeat runs, not every such curve was filed as active; inconclusive means weak or mixed curves, or effect the other way; inactive means no such curve, though single readings can be large or run the other way; the % refers to the signal ratio; further: potency means the concentration at half of the fitted maximal effect); conditions: HepG2 ARE-bla reporter, beta-lactamase FRET, 16 h; activation: at 73.3 µM (top of the series) unless noted
# Outline: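 An ARE-responsive beta-lactamase gene stably integrated in HepG2 cells serves as reporter. After 5 h plating and 16 h compound incubation at 37 C, fluorescence of the B/G FRET substrate was measured.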
# [10] = qHTS assay for small molecule agonists of the antioxidant response element (ARE) signaling pathway - cell viability counter screen (AID 743203); conditions: ARE-bla HepG2 viability, CellTiter-Glo luminescence, 16 h; viability change, negative = cytotoxic: at 73.3 µM (top of the series); further: nearly all actives have a fitted effect of over 55% in size; further: potency means the concentration at half of the fitted maximal effect
# Outline: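 Seeded at 2,000 cells/well, ARE-bla HepG2 cells were incubated 5 hrs before compound addition. After 16 hrs of treatment at 37C with 5% CO2, CellTiter-Glo reagent was added and luminescence read 30 min later.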
# [11] = qHTS assay to identify small molecule agonists of the vitamin D receptor (VDR) signaling pathway - cell viability counter screen (AID 743224; active means well fitted curve in the direction sought with a large enough effect in the repeat runs; inconclusive means weak or mixed curves; inactive means no such curve, though single readings can be large; an effect the other way counts as inactive or inconclusive; further: nearly all actives have a fitted effect of over 50% in size; further: potency means the concentration at half of the fitted maximal effect); conditions: VDR-bla HEK293T viability, CellTiter-Glo luminescence, 16 h; activity change, negative = cytotoxicity: at 62.6 µM (top of the series)
# Outline: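 Viability is measured in the same wells as the VDR-bla reporter assay: after 16 h compound treatment and 2 h substrate loading, CellTiter-Glo is added and luminescence read 30 min later.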
# [12] = biological target: Vitamin D3 receptor (Homo sapiens) (UniProt P11473); experiment: qHTS assay to identify small molecule antagonists of the vitamin D receptor (VDR) signaling pathway (AID 743223; active means well fitted inhibition curve with a large enough effect in the signal ratio in the repeat runs, not every such curve was filed as active; inconclusive means weak or mixed curves, or effect the other way; inactive means no such curve, though single readings can be large or run the other way; the % refers to the signal ratio; further: on the % scale 0 is the no-effect control and ±100 the full control effect); conditions: VDR-UAS-bla HEK293T, beta-lactamase FRET ratio, 16 h; activity change, negative = inhibition: at 61 µM (top of the series) unless noted
# Outline: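 Antagonist mode: compound added to VDR-bla cells alongside agonist 1alpha,25-dihydroxyvitamin D3 (3 nM final), incubation 16 h at 37C. Read-out is LiveBLAzer FRET fluorescence, 2 h at room temperature.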
# [13] = biological target: Peroxisome proliferator-activated receptor gamma (Homo sapiens) (UniProt P37231); experiment: qHTS assay to identify small molecule agonists of the peroxisome proliferator-activated receptor gamma (PPARg) signaling pathway (AID 743094; active means well fitted activation curve with a large enough effect in the signal ratio in the repeat runs, not every such curve was filed as active; inconclusive means weak or mixed curves, or effect the other way; inactive means no such curve, though single readings can be large or run the other way; the % refers to the signal ratio; further: on the % scale 0 is the no-effect control and ±100 the full control effect); conditions: HEK293H PPARg-UAS-bla, beta-lactamase FRET ratio, 17 h; activation: at 57 µM (top of the series) unless noted
# Outline: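 Quantitative HTS agonist mode: stable HEK293H line with UAS-beta-lactamase reporter under PPARg control, 17 h compound exposure at 37C, fluorescence after 1 h FRET substrate loading at room temperature.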
# [14] = ratio activity, negative = inhibition: at 62.6 µM (top of the series) unless noted
# Tags describe the fitted curve by direction and shape or compound fluorescence and quenching.
smiles,measurement,setting,value
Nc1ccc(N=Nc2ccccc2)c(N)n1,"ratio activity, negative = inhibition",[1]; at 62.6 µM (top of the series),inactive: -15.7%
same,Potency,[1]; [14],"inconclusive: 55.3 µM [inhibitor, partial curve]"
same,"ratio activity, negative = inhibition",[1]; [14],inconclusive: -19.5%
same,Potency,[2],inconclusive: 49.2 µM [cytotoxic]
same,activation,[2],inconclusive: -4.66%
same,Potency,[3],"active: 43.9 µM and inconclusive: 3.89 µM [cytotoxic, full curve]"
same,Potency,[4],"inconclusive: 1.55 µM [cytotoxic, full curve]"
same,"ratio activity, negative = inhibition",[5],inconclusive: -13.6%
same,Potency,[6],"inconclusive: 21.9 µM [cytotoxic, partial curve, poor fit]"
same,activation,[7],inconclusive: 3.25%
OCC#CCO,"ratio activity, negative = inhibition",[1]; at 81.1 µM (top of the series),inactive: 15.8%
same,"ratio activity, negative = inhibition",[1]; [14],inconclusive: 29.1%
same,Potency,[2],inconclusive: 54.9 µM [activator]
same,Potency,[6],"inconclusive: 1.57 µM [rising, partial curve, poor fit]"
Nc1ccc(O)c(N)c1,Potency,[1]; [14],inconclusive: 61.7 µM [inhibitor]
same,"ratio activity, negative = inhibition",[1]; [14],inconclusive: -36.1%
same,Potency,[8],"inconclusive: 24.4 µM [cytotoxic, partial curve, poor fit] and active: 43.6 µM"
same,Potency,[9],"inconclusive: 43.3 µM [falling, partial curve, poor fit]"
same,Potency,[10],"inactive and inconclusive: 77 µM [cytotoxic, single point]"
same,Potency,[4],"inconclusive: 0.687 µM [cytotoxic, full curve, poor fit]"
same,Potency,[11],inactive
C=C(C)C(=O)O,"ratio activity, negative = inhibition",[1]; at 62.6 µM (top of the series),inconclusive: 35.6%
same,"ratio activity, negative = inhibition",[1]; at 81.1 µM (top of the series),inconclusive: -8.34%
same,Potency,[3],"inconclusive: 61.6 µM [rising, partial curve, poor fit]"
same,"activity change, negative = inhibition",[12],inconclusive: -7.84%
CC(CC=O)CCCC(C)(C)O (stereo unspecified),Potency,[13],inactive
same,Potency,[4],"inconclusive: 0.971 µM [cytotoxic, full curve, poor fit]"
same,Potency,[5],inactive
same,"activity change, negative = inhibition",[12],inconclusive: -18.4%
same,Potency,[11],"inconclusive: 61.3 µM [rising, partial curve, poor fit]"
Cc1cc(C)cc(N)c1,activation,[13],inconclusive: 11.9% [at 78.9 µM]
same,Potency,[9],inactive
same,Potency,[5],inactive
FC(F)(F)c1ccccc1Cl,Potency,[1]; [14],inactive
CC1(C)S[C@@H]2[C@H](NC(=O)C(c3ccccc3)S(=O)(=O)O)C(=O)N2[C@H]1C(=O)O (stereo partly specified),Potency,[1]; [14],inactive
CC(=O)c1ccc(Cl)c(Cl)c1Cl,"ratio activity, negative = inhibition",[1]; [14],inconclusive: 4.39%
